This note sets out measurements from article PMC12136788.

First the molecules themselves.
T1: UNK ZnF1-6 (called full-length) (human, UniProt Q9C0B0 30-357)
T1 sequence: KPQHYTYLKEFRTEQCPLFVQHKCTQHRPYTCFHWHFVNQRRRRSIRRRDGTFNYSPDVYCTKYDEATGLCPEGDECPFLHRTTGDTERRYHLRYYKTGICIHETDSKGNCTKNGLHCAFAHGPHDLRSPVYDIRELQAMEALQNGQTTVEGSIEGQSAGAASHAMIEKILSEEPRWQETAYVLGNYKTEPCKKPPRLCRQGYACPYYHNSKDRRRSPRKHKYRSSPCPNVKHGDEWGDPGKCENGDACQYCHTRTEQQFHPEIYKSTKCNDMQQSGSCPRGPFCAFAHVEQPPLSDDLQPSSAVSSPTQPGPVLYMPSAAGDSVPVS

B1: chr7:4859899:4861810:-|CDS|ENSG00000218823|control|control|control (ssRNA)
RNA: GGGAGUUCUACAGUCCGACGAUCUCUGUGCCUUCAUCUACUAGCACUAUGAAGACAGGCCCAUUGAUUAGCAGUUCUCAGGGUAGAAACAGUCCUGCCUUGGCUGUAAUGACAGCAUCUGUGGCUAACAUACAGGCUACUGAACAACAGAGGAUUGAGCAUCA
B2: chr7:20410151:20410448:+|3pUTR|ENSG00000105855|msi1|FALSE|unique (ssRNA)
RNA: GGGAGUUCUACAGUCCGACGAUCACUAGUGUCGUUGUAGCACUUUACUGUAAUAUAUAACUUAUUUAGAUCAGCAUAGAAUGUAGAUCCUCUGAAGAGCACUGAUUACACUUUACAGGUACCUGUUAUCCCUACGCUUCCCAGCAACAGAGGAUUGAGCAUCA
B3: chr1:90712314:90712624:-|CDS|ENSG00000143032|control|control|control (ssRNA)
RNA: GGGAGUUCUACAGUCCGACGAUCUCCAGCACCCCAUCCCCAGCUGCAGCGGCCCCUGGUGCCCCGUGUGCUCAUCCACGGCCUAGGGCCUGGGGGACAGCCAGCCCUUAAUCCAUUGUCCAGCCCCAUCCCAGGCACCCCACACAACAGAGGAUUGAGCAUCA
B4: ENSG00000107863:be:win_6351|3pUTR|ENSG00000107863|bound_else_gene|NA|bound_elsewhere_windowed (ssRNA)
RNA: GGGAGUUCUACAGUCCGACGAUCGAACUUCCAUUCUUUAGUCAUUCCAGGUGGAUCUGAGUUUUAUAUUCAAACUUUUAAUACAGUUUUUGAGUUUUGUGUGACUUGAAUUUUUAAUCUUUCUGUAAAAUACGUAACUUAAAUCAACAGAGGAUUGAGCAUCA
B5: ENSG00000070961:be:win_451|CDS|ENSG00000070961|bound_else_gene|NA|bound_elsewhere_windowed (ssRNA)
RNA: GGGAGUUCUACAGUCCGACGAUCACUGGUUGGAUUGAAGGAGCUGCAAUCCUCUUGUCUGUAGUGUGUGUGGUGUUAGUAACAGCUUUCAAUGACUGGAGUAAGGAAAAACAGUUUAGAGGUUUGCAGAGCCGAAUUGAACAACAACAGAGGAUUGAGCAUCA
B6: chr4:68227913:68228072:-|CDS|ENSG00000185873|control|control|control (ssRNA)
RNA: GGGAGUUCUACAGUCCGACGAUCUGAUUCUGGUGGACCACUAGCUUACCCUGAUUCCAGAAAUAUCUGGCAUCUUGUUGGAAUAGUAAGCUGGGGUGAUGGAUGUGGUAAAAAGAAUAAGCCAGGUGUCUAUACUCGAGUGACCAACAGAGGAUUGAGCAUCA
B7: chr8:103332422:103332528:+|3pUTR|ENSG00000164930|msi1|FALSE|unique (ssRNA)
RNA: GGGAGUUCUACAGUCCGACGAUCUUUUUUAACAUUUAGAAUAUUACAUUUUGUAUUAUACAGUACCUUUCUCAGACAUUUUGUAGAAUUCAUUUCGGCAGCUCACUAGGAUUUUGCUGAACAUUAAAAAGUGUGAUAGCGAUACAACAGAGGAUUGAGCAUCA
B8: chr15:60347444:60347559:-|3pUTR|ENSG00000182718|msi1_unk|total|mutant (ssRNA)
RNA: GGGAGUUCUACAGUCCGACGAUCUAACAGUCCCCGUGGCCAUCCCUGUGAGGGUGACGUCCGCAUUACCCCCAACCUCAUUUCCGUUGCCUAAGCAUUGCCUGGCCUUCCUGUCCCGUCUCUCCUGUAAGCCAAAGAAAUGAACAACAGAGGAUUGAGCAUCA
B9: chr14:51255895:51255996:+|3pUTR|ENSG00000139921|msi1_unk|FALSE|overlapping (ssRNA)
RNA: GGGAGUUCUACAGUCCGACGAUCGUGAAUCCAUUAGAUUUACAGUAUCGUAAUAUACAAGUUUUCUUUAAAGCCCUCUCCUUUAGAAUUUAAAAUAUUGUACCAUUGAAGAGUUUGGAUGUGUAACUUGUGAUGCCUUAGAAACAACAGAGGAUUGAGCAUCA
B10: chr2:216672581:216672718:-|3pUTR|ENSG00000115461|msi1|FALSE|unique (ssRNA)
RNA: GGGAGUUCUACAGUCCGACGAUCCACUCCACCAGUCCCCGGUCGCCAGCCGGAGUCUCCUCUCUACCGCCACUGUCACACCGUAGCCCACAUGGAUAGCACAGUUGUCAGACAAGAUUCCUUCAGAUUCCGAGUUGCCUACCGCAACAGAGGAUUGAGCAUCA
B11: chr15:83017406:83017507:-|3pUTR|ENSG00000064726|msi1|FALSE|unique (ssRNA)
RNA: GGGAGUUCUACAGUCCGACGAUCGGCCUAAUAAAAUGCCCAAGAAAAUAUUCAGUGCAUUUAUAGAGAAGGAUAUUUUGUAGUAGUAUAGUAAUGUGUUAUGUAGUACAGUUUUAAAGCUAUAAAUGGAAUUUUGUGUAAAUUCAACAGAGGAUUGAGCAUCA
B12: chr1:36180537:36180567:+|3pUTR|ENSG00000116871|msi1_unk|FALSE|overlapping (ssRNA)
RNA: GGGAGUUCUACAGUCCGACGAUCCAUACACACAUAUACACUCACAGCCUCUCUGGCCUCUUCCCUUGGGGAGGGGCCACCUGUAGUAUUUGCCUUGAUUUGGUGGGGUACAGUGGAUGUGAAUACUGUAAAUAGCUUGUGCUCCAACAGAGGAUUGAGCAUCA
B13: chr1:1785892:1785993:-|3pUTR|ENSG00000078369|msi1|total|mutant (ssRNA)
RNA: GGGAGUUCUACAGUCCGACGAUCUUUACUCUCCGAAUCGCAUGCUGCCGAAAUGCUCAAAAGUGCAUAUGGGACUCAGUCCUCCGGUGUUCUUUUUCUUUUAAGAAAUAACCUCUUACAGUUGUAACCAUUGCGGCUCUGUCCCAACAGAGGAUUGAGCAUCA
B14: ENSG00000147536:stop:overlap|stop_codon|ENSG00000147536|stop_codon|NA|stop_codon (ssRNA)
RNA: GGGAGUUCUACAGUCCGACGAUCUCCGCUACGUCCUCAGCAGCUACUUGCGGUGUCGCCUCAUGAAGUUCCCAAACCAGAUCUAGAUUCUUACGUGUUUCUGAGAGUGAGAGAACGACAAGAAAACAUACUGGUAGAACCAGACAACAGAGGAUUGAGCAUCA

The other results are listed elsewhere or left out.

This assay has as its target T1, UNK ZnF1-6 (called full-length). Kind of assay: nsRBNS (natural sequence RNA bind-n-seq); RBNS binding buffer (assumed for nsRBNS): 25 mM Tris pH 7.5, 150 mM KCl, 3 mM MgCl2, 0.01% Triton X-100, 500 ug/ml BSA, 20 U/ml SUPERase-In, 4 C; UNK is unkempt and MSI1 is Musashi-1; names of the RNAs are library labels; protein concentration not given here; high values mean tight binding.
The molecule B1 gave a binding signal of 0.488 enrichment R.
The same measure for B2: 2.59 enrichment R; for B3: 1.08 enrichment R; for B4: 3.82 enrichment R.
The same measure for B5: 0.818 enrichment R; for B6: 0.568 enrichment R.
The same measure for B7: 8.2 enrichment R; for B8: 0.662 enrichment R; for B9: 5.27 enrichment R.
In turn, B10 registered a binding signal of 0.869 enrichment R.
For B11 the value was 5.2 enrichment R.
For B12 the value was 0.629 enrichment R; for B13, 0.424 enrichment R; for B14, 33.9 enrichment R.
